What is called stoichiometry N is the number of molecules, sites or subunits per partner or assembly.

“And” between values parts separate entries of the source, which are not always exact repeats. Identical values can stand only once.

Data on one protein can be found in publication PMC12057664, “High-resolution characterization of ex vivo AAT polymers by solution-state NMR spectroscopy” (Science Advances, 2025).

This data set deals with the molecule itself. Briefly: SEC + native gel or EMSA; Z AAT polymers extracted from explanted liver, separated by metal affinity, ion exchange and Superdex 200 Increase size exclusion; fractions on nondenaturing PAGE, ~4 μg per lane. Background: In EMSA bound probe runs differently from free probe, usually more slowly.

B1: Z alpha-1-antitrypsin (E342K) polymers from explanted human liver (natural protein)
chain: not shown
notes: alpha-1-antitrypsin (AAT), human, Z variant (c.1096G>A, p.Glu366Lys); numbers count on: the mature protein; E342 is E366 on the precursor (p.Glu366Lys printed); Tissue-derived; also called Z AAT; liver-derived polymers
Regarding B1, the “stoichiometry N” value is 2 and 3.
